From PubChem BioAssay AID720709 (National Center for Advancing Translational Sciences (NCATS), 2013)
Among all 360,000 compounds or so, about 520 (0.14%) were called active. Inconclusive means that the source gave no clear call. Such entries were picked first, then a sample of the others. Calls come from the whole dose curve; as a rule, active = well fitted inhibition curve with a large enough effect; inconclusive = small, poorly fitted or top-dose-only effect; inactive = no such curve, though single readings can be large or run the other way. No potency is given beside an inconclusive call; the fits are too rough.

molecular target: Rap guanine nucleotide exchange factor 3 (Homo sapiens) (UniProt O95398); experiment: qHTS for Antagonist of cAMP-regulated guanine nucleotide exchange factor 3 (EPAC1): primary screen; settings: EPAC1 GEF assay, Rap1b-BODIPY-GDP exchange fluorescence; series mostly up to 115 µM; note: nearly all actives have a fitted effect of over 50% in size
Sequence of UniProt O95398 (O95398 whole entry, looked up): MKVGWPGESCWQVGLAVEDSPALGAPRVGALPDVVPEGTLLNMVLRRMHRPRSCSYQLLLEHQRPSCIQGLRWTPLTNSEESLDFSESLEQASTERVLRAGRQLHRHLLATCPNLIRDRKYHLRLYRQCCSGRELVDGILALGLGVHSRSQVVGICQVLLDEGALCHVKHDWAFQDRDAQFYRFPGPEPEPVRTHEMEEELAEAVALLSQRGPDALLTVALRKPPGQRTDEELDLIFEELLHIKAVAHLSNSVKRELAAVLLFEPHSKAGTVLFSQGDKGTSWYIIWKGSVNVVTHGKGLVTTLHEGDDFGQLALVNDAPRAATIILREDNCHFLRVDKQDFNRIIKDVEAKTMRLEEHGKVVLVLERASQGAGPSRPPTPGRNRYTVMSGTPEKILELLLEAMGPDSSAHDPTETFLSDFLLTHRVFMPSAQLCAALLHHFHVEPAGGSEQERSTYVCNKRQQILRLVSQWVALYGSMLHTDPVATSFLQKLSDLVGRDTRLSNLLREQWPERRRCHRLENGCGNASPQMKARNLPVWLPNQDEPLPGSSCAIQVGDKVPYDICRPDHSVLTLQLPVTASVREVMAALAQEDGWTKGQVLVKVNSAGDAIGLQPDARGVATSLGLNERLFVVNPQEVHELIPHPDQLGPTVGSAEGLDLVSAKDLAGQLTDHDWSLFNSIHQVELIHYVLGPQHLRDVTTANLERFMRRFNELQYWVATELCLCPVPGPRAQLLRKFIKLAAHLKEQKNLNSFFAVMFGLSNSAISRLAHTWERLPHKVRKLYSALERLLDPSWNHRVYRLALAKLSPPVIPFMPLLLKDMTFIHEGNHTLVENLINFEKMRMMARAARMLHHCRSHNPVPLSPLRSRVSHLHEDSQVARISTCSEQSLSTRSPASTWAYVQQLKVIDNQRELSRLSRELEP
Source text: In multi-cellular eukaryotic organisms, the effects of cAMP are transduced by two ubiquitously-expressed intracellular cAMP receptors, the classic protein kinase A/cAMP-dependent protein kinase (PKA/cAPK) and the more recently discovered exchange protein directly activated by cAMP/cAMP-regulated guanine nucleotide exchange factor (EPAC/cAMP-GEF). Both PKA and EPAC are ubiquitously expressed in all tissues, and an increase in intracellular cAMP levels will lead to the activation of both PKA and EPAC. Therefore, careful dissections of the individual role and relative contribution of EPAC and PKA within the overall cAMP signaling in various model systems are critical for further elucidating the mechanism of cAMP signaling. To date no EPAC-specific antagonists and agonist, as well as isoform-specific agonists have been reported, and developing EPAC-specific pharmacological probes to determine the physiological functions that EPAC play in the overall cAMP-mediated signaling remains a major challenge within the research field. Furthermore, identified regulators of EPAC may lead to new mechanism-based therapeutic strategies specifically targeting the EPAC / cAMP-signaling components as EPAC has been implicated to play important roles in major human pathological conditions such as diabetes, heart disease, and cancer. This qHTS will be used to screen the Molecular Libraries Small Molecule Repository (MLSMR) as a concentration-titration series using the NCGC unique quantitative screening (qHTS) platform to find inhibitors for EPAC1. In addition, this assay will also be used as a counterscreen for the EPAC2 qHTS. This fluorescent based assay is developed and validated for EPAC1 that measures exchange using EPAC effector Rap1 complex with BODIPY-GDP, a GDP analog with a tethered fluorophores. Inhibitors are identified by monitoring the change in fluorescence signal as the exchanged free BODIPY-GDP has a reduced fluorescence compared to Rap1-bound BODIPY-GDP. Decrease in signal (inhibition) is the desired outcome for the EPAC1 antagonist while no activity in this assay is desired for the EPAC2 antagonist counterscreen. de Rooij, J., Zwartkruis, F. J., Verheijen, M. H., Cool, R. H., Nijman, S. M., Wittinghofer, A., and Bos, J.L. (1998) Nature 396, 474-477 [2] Kawasaki, H., Springett, G. M., Mochizuki, N., Toki, S., Nakaya, M., Matsuda, M., Housman, D. E., and Graybiel, A. M. (1998) Science 282, 2275-2279 NIH Chemical Genomics Center [NCGC] NIH Molecular Libraries Probe Centers Network [MLPCN] MLPCN Grant: NS066510 Assay Submitter (PI): Xiaodong Cheng, The University of Texas, Medical Branch
Briefly, three uL of reagents (100 nM EPAC1, 250 nM RAP1B-BODIPY-GDP, 50 uM GDP) were dispensed into a 1536-well Greiner black solid-bottom medium binding assay plate. Controls and test compounds (23 nL) were transferred to the plate via a Kalypsys pin tool equipped with a 1536-pin array. The plates were centrifuged at 1,000 rpm for 15 seconds followed by 5 minute incubation at room temperature. The assay plates were read at 5 minute intervals for 30 minutes in the ViewLux plate reader using 480nm excitation and 540nm emission filters. The results were normalized to the […] positive control ATA and DMSO.
Potency is the fitted concentration of half-maximal effect; tags give direction and shape of the fitted curve.

| Compound | Potency |
| --- | --- |
| COc1ccc(N(C)S(=O)(=O)c2cccc3nsnc23)cc1 | inconclusive [inhibitor, partial curve] |
| Nc1nc(SCC(=O)NCc2ccccc2Cl)[nH]c(=O)c1NC(=O)c1ccccc1F | inconclusive [inhibitor, full curve, poor fit] |
| CC(=O)NC(CCS(C)(=O)=O)C(=O)Nc1cccc(C)c1C (configuration not stated) | inconclusive [inhibitor, single point] |
| OCc1ccc(O)c2ncccc12 | inactive |
| N#CCSc1ccc(-c2nc3ccccc3[nH]2)cn1 | inconclusive [inhibitor, single point] |
| COc1ccc(CNC(=O)C2CCCN2)cc1OC (configuration not stated) | inconclusive [inhibitor, partial curve, poor fit] |
| Cc1cccc(C(=O)O/N=C(\c2ccccc2)c2cccnc2)c1 | inactive |
| CCn1cnc2c1c(=O)n(CC(=O)OC(C)C(N)=O)c(=O)n2Cc1ccccc1 (configuration not stated) | inconclusive [inhibitor, single point] |
| COc1ccccc1OCC(=O)Nc1nc(C)c(C)s1 | inconclusive [inhibitor, partial curve] |
| Cc1cccc(NC(=O)NCCc2c[nH]c3ccccc23)c1 | inactive |
| CCCCCCCOc1ccc(C2(C)NC(=O)NC2=O)cc1 (configuration not stated) | inconclusive [inhibitor, single point] |
| COc1ccc2oc(C(=O)OCC(=O)N(C)C3CCCCC3)c(C)c2c1 | inconclusive [inhibitor, single point] |
| O=c1cc(-c2ccsc2)oc2cc(-c3ccc4c(c3)OCO4)ccc12 | inactive |
| Cc1ccc(S(=O)(=O)C(C#N)c2nc3ccccc3nc2N2CCN(C)CC2)cc1 (configuration not stated) | inactive |
| CSc1ccccc1C(=O)NCc1ccc(C)cc1 | inconclusive [inhibitor, partial curve, poor fit] |
| COc1ccc(NC(=O)NNc2cc(N3CCOCC3)nc(N3CCOCC3)n2)cc1 | inconclusive [inhibitor, full curve, poor fit] |
| CCOc1ccccc1NC1=NC2CS(=O)(=O)CC2S1 (configuration not stated) | inconclusive [inhibitor, single point] |
| Cc1ccc(S(=O)(=O)NN2C(=O)/C(=C/c3cccc(F)c3)SC2=S)cc1 | inconclusive [inhibitor, partial curve] |
| CCNc1ccccc1CP(=O)(c1ccccc1)c1ccccc1O (configuration not stated) | inactive |
| CC(=O)c1c(C)[nH]c(C(=O)OCC(=O)Nc2ccc(C)cc2[N+](=O)[O-])c1C | inconclusive [inhibitor, partial curve, poor fit] |
| O=C(Cc1ccc(F)cc1)Nc1ccc(S(=O)(=O)N2CCCCC2)cc1 | inconclusive [inhibitor, partial curve] |
| Cc1[nH][nH]c(=O)c1C(c1c(C)[nH][nH]c1=O)c1cn(Cc2cccc3ccccc23)c2ccccc12 | active: 89.1 µM |
| CC(C)(C)c1ccc(-c2cc(C(=O)NNC(=O)Nc3ccccc3)c3ccccc3n2)cc1 | inconclusive [inhibitor, partial curve] |

| Compound | Potency |
| --- | --- |
| C=C(C)C(=O)Nc1cccc(C2=NOC3(C2)C[C@H](C(N)=O)N(C(=O)COc2ccc(Cl)cc2)C3)c1 (some centres not stated) | inactive |
| Cc1c(NC(=O)COC(=O)c2cc(-c3ccc(-c4ccccc4)cc3)nc3ccccc23)c(=O)n(-c2ccccc2)n1C | inconclusive [inhibitor, partial curve] |
| O=C(Cc1ccccc1)N/N=C/c1ccc(S(=O)(=O)O)o1 | inconclusive [inhibitor, full curve, poor fit] |
| NC(N)=N/N=C(\N=Nc1ccccc1)c1ccc(Cl)cc1 | inactive |
| O=C(CSCc1ccccc1F)NCc1ccccc1 | inactive |
| O=C(CN1CCN(S(=O)(=O)c2ccc(Br)cc2)CC1)Nc1ccc(F)cc1 | inactive |
| O=C(/C=C/c1cccc(Br)c1)c1ccc2c(c1)OCO2 | inconclusive [inhibitor, partial curve] |
| CCOC(=O)C1CCCCN1Cc1cccc(OCc2ccccc2)c1 (configuration not stated) | inactive |
| Cc1cccc2c(C(=O)O)cc(-c3cccnc3)nc12 | inconclusive [inhibitor, single point] |
| CC(=O)Nc1cccc(/C(C)=N/Nc2ccc(S(=O)(=O)Nc3ccccc3C(=O)O)cc2[N+](=O)[O-])c1 | active: 50.1 µM |
| Cc1ccc(C(NC(=O)C(C)C)c2cc([N+](=O)[O-])c3cccnc3c2O)cc1 (configuration not stated) | active: 50.1 µM |
| COc1ccc2ccccc2c1CNCc1ccccn1 | inconclusive [inhibitor, partial curve] |
| Cc1ccc(-c2nc(SCC(=O)c3c(N)n(C4CC4)c(=O)[nH]c3=O)n[nH]2)cc1 | inconclusive [inhibitor, single point] |
| CCC(=O)N1CCCC(C)(C(=O)Nc2ccc3scnc3c2)C1 (configuration not stated) | inactive |
| O=C(N/N=C/c1ccc(O)c([N+](=O)[O-])c1)C1CC1(c1ccccc1)c1ccccc1 (configuration not stated) | inconclusive [inhibitor, full curve] |
| CC1CC(C)CN(CCCNC(=O)c2ccc3nc(N4CCOCC4)sc3c2)C1 (configuration not stated) | inconclusive [inhibitor, single point] |
| O=C1CCC(=O)N1CN(C(=O)c1ccco1)c1ccc(Cl)c(Cl)c1 | inconclusive [inhibitor, single point] |
| Cc1cccc(NC(=O)CNC(=O)CCc2nc3sc4c(c3c(=O)[nH]2)CCCC4)c1C | inconclusive [inhibitor, partial curve] |
| CCc1ccccc1NC(=S)N1CCNC(=O)C1CC(=O)OC (configuration not stated) | inconclusive [inhibitor, full curve, poor fit] |
| CC(=O)Nc1ccc(NC(=O)C(C)Sc2nnc(-c3ccc4c(c3)OCO4)o2)cc1 (configuration not stated) | inconclusive [inhibitor, single point] |
| CCc1ccc([C@H]2C(C(=O)O)=C[C@@H](CC3CCCC3)N2S(=O)(=O)c2ccc(C)cc2)cc1 | inconclusive [inhibitor, single point] |
| CN1CCN(c2ccc(Cl)cc2NC(=O)c2ccc(S(=O)(=O)N(C)C)cc2)CC1 | inconclusive [inhibitor, single point] |
| CCCCCOc1ccc(C(=O)CCC(=O)Nc2ccc(NC(C)=O)cc2)cc1 | inconclusive [inhibitor, full curve, poor fit] |

| Compound | Potency |
| --- | --- |
| Cc1ccc(N2CCN(/N=C/c3ccccc3)CC2)cc1 | inconclusive [inhibitor, single point] |
| COC(=O)c1ccccc1C(=O)c1cccc2ccccc12 | inactive |
| CCn1c(C(=O)N2CCc3ccccc3C2)cc2sccc21 | inconclusive [inhibitor, full curve] |
| Cc1ccccc1OCCCCn1c(CO)nc2ccccc21 | inconclusive [inhibitor, partial curve, poor fit] |
| N#C/C(=C\Nc1ccccn1)S(=O)(=O)c1ccc(Cl)cc1 | inconclusive [inhibitor, full curve, poor fit] |
| O=C(CSc1nncc(=O)[nH]1)NCc1ccccc1 | inconclusive [inhibitor, partial curve, poor fit] |
| CCOc1cc(/C=N/O)cc(Br)c1OCc1ccc(Cl)cc1 | inconclusive [inhibitor, single point] |
| C=CCOc1ccc(C(=O)/C=C2/C(=O)Nc3ccccc32)cc1 | inactive |
| COC(=O)c1cc(Sc2c(Cl)cccc2Cl)ccn1 | inconclusive [inhibitor, single point] |
| CC1=NN(c2ccccc2C(=O)O)C(=O)C1N=Nc1ccccc1 (configuration not stated) | inconclusive [inhibitor, single point] |
| CN(C)S(=O)(=O)N1CCN(S(=O)(=O)N(C)C)CC1 | inconclusive [inhibitor, single point] |
| NS(=O)(=O)c1ccc(N2N=C(c3ccccc3)CC2c2ccccc2Br)cc1 (configuration not stated) | inconclusive [inhibitor, partial curve] |
| CCOC(=O)C1CN(S(=O)(=O)c2cccs2)c2ccc(CC(=O)OC)cc2O1 (configuration not stated) | inconclusive [inhibitor, single point] |
| COc1ccc(NC(=O)Cc2nnc(SCC(=O)Nc3nccs3)n2C)cc1 | inconclusive [inhibitor, full curve, poor fit] |
| Cc1[nH][nH]c(=O)c1C(c1c(C)[nH][nH]c1=O)c1cn(C)c2ccccc12 | inactive |
| CCC(C)N(C(=O)COC(=O)C1CCN(S(=O)(=O)c2ccc(C)c(C)c2)CC1)C1CCS(=O)(=O)C1 (configuration not stated) | inconclusive [inhibitor, partial curve, poor fit] |
| COC(=O)[C@]12CCCCC=C1N(Cc1ccc3c(c1)OCO3)C(=O)[C@H](CC(=O)NCc1cccs1)C2 | inactive |
| CCCCN1C(C(=O)Nc2cc(C)on2)=C(O)c2ccccc2S1(=O)=O | inconclusive [inhibitor, single point] |
| CC1CCc2c(sc3nc(SCC(=O)O)n(-c4ccccc4)c(=O)c23)C1 (configuration not stated) | active: 89.1 µM |
| COc1ccc(-c2cn(-c3ccc(C)c(Cl)c3)c(=S)[nH]2)cc1OC | inconclusive [inhibitor, full curve, poor fit] |
| Cc1ccc(C23CC4CC(CC(C(=O)NN)(C4)C2)C3)cc1 | inconclusive [inhibitor, single point] |
